Values joined by “and” are separate entries in the source; they are usually repeats but may differ in a detail not shown here. Equal entries are not always repeated. Hit rate of the full screen: of about 270,000 compounds, about 5,800 (2.1%) were called active. Inconclusive results, whose numbers are uncertain, are shown with a selection of clear calls. Calls follow the shape of the dose curve; as a rule, active = well fitted inhibition curve with a large enough effect; inconclusive = small, poorly fitted or top-dose-only effect; inactive = flat fitted curve, though single readings scatter. Potencies beside an inconclusive call are fits to weak or partial responses and may not hold up.
biological target: Microtubule-associated protein tau (Homo sapiens) (UniProt P10636); test: qHTS for Inhibitors of Tau Fibril Formation, Thioflavin T Binding; details: recombinant tau K18 P301L (four-repeat tau fragment), heparin-induced fibrillization, ThT fluorescence; series mostly up to 57.4 µM; activity, negative = inhibition: at the top concentration; also: nearly all actives have a fitted effect of over 55% in size
Sequence of UniProt P10636 (P10636 whole entry, looked up, the tested form may be a part): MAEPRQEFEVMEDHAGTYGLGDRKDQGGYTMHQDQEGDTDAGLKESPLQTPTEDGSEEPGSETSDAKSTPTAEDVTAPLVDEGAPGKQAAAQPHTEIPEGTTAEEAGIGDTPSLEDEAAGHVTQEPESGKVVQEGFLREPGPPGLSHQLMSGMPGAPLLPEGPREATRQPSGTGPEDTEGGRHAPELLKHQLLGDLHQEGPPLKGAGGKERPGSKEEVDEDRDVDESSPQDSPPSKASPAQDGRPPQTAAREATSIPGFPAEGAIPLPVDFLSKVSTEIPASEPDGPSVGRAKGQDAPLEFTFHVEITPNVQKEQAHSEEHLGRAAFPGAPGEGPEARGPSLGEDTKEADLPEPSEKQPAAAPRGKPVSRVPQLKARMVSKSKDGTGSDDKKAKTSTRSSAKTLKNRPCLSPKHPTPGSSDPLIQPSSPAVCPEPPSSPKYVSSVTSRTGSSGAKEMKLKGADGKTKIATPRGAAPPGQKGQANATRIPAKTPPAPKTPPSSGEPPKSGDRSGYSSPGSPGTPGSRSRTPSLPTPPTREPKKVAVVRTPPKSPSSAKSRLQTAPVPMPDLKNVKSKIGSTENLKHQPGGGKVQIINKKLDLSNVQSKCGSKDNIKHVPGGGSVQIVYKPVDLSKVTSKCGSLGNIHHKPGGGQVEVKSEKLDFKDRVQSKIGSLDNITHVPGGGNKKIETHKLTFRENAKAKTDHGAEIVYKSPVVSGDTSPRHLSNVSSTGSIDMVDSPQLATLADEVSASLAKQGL
In short: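 Heparin-induced (20 uM) aggregation of recombinant human K18 P301L tau, 15 uM unlabeled with 0.24 uM labeled, pH 7 acetate buffer, 6 hr at 37 C with compound. Fibrils quantified by 30 uM ThT fluorescence after 1 hr ambient incubation.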
% is scaled to controls: 0 for no effect and ±100 for the full control effect; potency is read from the fitted curve at half-maximal effect; tags tell the direction and shape of the fitted curve.

SMILES | Potency | activity, negative = inhibition
CC1C=CCC2C(=O)N(c3cccc(C(=O)N4CCN(c5ccc(F)cc5)CC4)c3)C(=O)C12 (stereo not drawn) | inconclusive: 25.1 µM [inhibitor, single point] | –
CCOc1ccc(/C=N/NC(=O)c2nnn(-c3nonc3N)c2-c2ccc(OCC)cc2)cc1 | – | inactive: 9.45%
CC1CCc2onc(C(=O)N3CCN(c4cccc(C(F)(F)F)c4)CC3)c2C1 (stereo not drawn) | inconclusive: 8.91 µM [inhibitor, full curve, poor fit] | –
Nc1cc(=O)[nH]c(SCC(=O)Nc2ccc(S(=O)(=O)N3CCCCC3)cc2)n1 | – | inactive: 5.63%
O=C(COc1ccc(-n2cnnn2)cc1)NCCc1ccc(F)cc1 | inconclusive: 11.2 µM [inhibitor, partial curve] | –
COc1ccc2[nH]c(C(=O)O)c(CCN3C(=O)c4cccc([N+](=O)[O-])c4C3=O)c2c1 | inconclusive: 25.1 µM [inhibitor, single point] | –
Cc1cc(/C=N/n2cnnc2)c(C)n1-c1ccc(OCc2ccc(Cl)cc2Cl)cc1 | inconclusive: 14.1 µM [inhibitor, partial curve] | –
Cc1ccccc1OCCNc1cc(N2CCCCC2)ccc1[N+](=O)[O-] | inconclusive: 7.08 µM [inhibitor, partial curve] | –
Cc1ccc2oc3c(c(=O)c2c1)C(c1cccc(Cl)c1)N(CCCN1CCOCC1)C3=O (stereo not drawn) | – | inactive: -8.32%
Oc1cccc(C2c3[nH]c4ccccc4c3CCN2Cc2ccc3c(c2)CCO3)c1 (stereo not drawn) | inconclusive: 20 µM [inhibitor, single point] | –
COc1cccc2sc(Nc3nnc(-c4cccs4)o3)nc12 | inconclusive: 7.94 µM [inhibitor, partial curve] | –
CCC1c2ccc(C)n2CCN1C(=O)Nc1cc(Cl)ccc1OC (stereo not drawn) | active: 22.4 µM | –
OCc1ccccc1N=c1ssnc1Cl | active: 35.5 µM | –
Cc1ccc(C(=O)Nc2nc3n(n2)C(c2ccccc2)C=C(c2ccccc2)N3)cc1 (stereo not drawn) | – | inactive: -9.09%
O=C(Cn1nc(Cc2cccnc2)c2ccccc2c1=O)Nc1cccc(C(F)(F)F)c1 | inconclusive: 39.8 µM [inhibitor, single point] | –
COc1cc(OC)c(OC)cc1/C=N/Nc1nc2ccccc2[nH]1 | inconclusive: 0.447 µM [inhibitor, full curve, poor fit] | –
CCCCn1nc(NC(=O)c2cccs2)c2cc3ccccc3nc21 | inconclusive: 17.8 µM [inhibitor, partial curve] | –
CC(=O)OCC1OC(C#CC(C)(C)C)C=CC1OC(C)=O (stereo not drawn) | inconclusive: 3.55 µM [inhibitor, single point] and inconclusive: 5.01 µM [inhibitor, partial curve] | –
Cc1ncc(CO)c(/C=N/NC(=O)c2cc(Br)ccc2O)c1O | inconclusive: 15.8 µM [inhibitor, partial curve] | –
Cc1cccc(-n2ccnc2SCC(=O)Nc2nccs2)c1C | inconclusive: 25.1 µM [inhibitor, single point] | –
O=C(CSc1nnc(CNc2cccc(Cl)c2)o1)OC1CCCCC1 | inconclusive: 20 µM [inhibitor, partial curve] | –
Cc1c(OCC(=O)NC(Cc2c[nH]c3ccc(O)cc23)C(=O)O)ccc2c3c(c(=O)oc12)CCC3 (stereo not drawn) | inconclusive: 39.8 µM [inhibitor, partial curve, poor fit] | –
CC(=O)C1C(c2cn(-c3ccccc3)nc2-c2cccs2)NC(=O)NC1(O)C(F)(F)F (stereo not drawn) | – | inactive: -4.92%

SMILES | Potency | activity, negative = inhibition
Clc1ccc2nc(-c3ccc(Br)o3)c(Nc3ccc4c(c3)OCCO4)n2c1 | – | inactive: -2.48%
COc1ccc(NC(=O)N2CCc3ccccc32)cc1 | inconclusive: 31.6 µM [inhibitor, single point] | –
Cn1c(N/N=C/c2c[nH]c3ccccc23)nc2ccccc21 | active: 4.47 µM | –
COC(=O)c1ccc(OCCOc2ccccc2)cc1 | inconclusive: 12.6 µM [inhibitor, partial curve] | –
NC(=S)NCCCC(N)C(=O)O (stereo not drawn) | inconclusive: 11.2 µM [inhibitor, partial curve] | –
O=C(N/N=C/c1c(Cl)[nH]c2ccccc12)c1ccc2c(c1)OCCO2 | inconclusive: 1.58 µM [inhibitor, partial curve] | –
Cc1cc(C(=O)NNC(=S)NC(=O)/C=C/c2ccccc2Cl)n[nH]1 | inconclusive: 25.1 µM [inhibitor, single point] | –
O=C(Nc1cccc(N=Cc2cc(Br)cc(Br)c2O)c1)c1ccco1 | active: 14.1 µM | –
COc1cc2[nH]c(=S)n(C3CC3)c(=O)c2cc1OC | – | inactive: 1.97%
COc1ccc(/C=C/C(=O)OCc2csc(-c3ccccc3)n2)cc1OC | inconclusive: 14.1 µM [inhibitor, partial curve] | –
CC(=O)N1C(=O)CC(C)N(C(C)=O)c2ccc([N+](=O)[O-])cc21 (stereo not drawn) | inconclusive: 10 µM [inhibitor, partial curve] | –
Cc1cc(C)c(C)c(S(=O)(=O)N[C@@H](C)C(=O)OCC(N)=O)c1C | – | inactive: -2.75%
Cc1cc(/C=C(\C#N)c2nnc(N3CCOCC3)n2-c2ccccc2)c(C)n1-c1ccccc1 | inconclusive: 15.8 µM [inhibitor, partial curve] | –
O=C(CSc1nc(-c2ccccc2)c(-c2ccccc2)[nH]1)NCC1CCCO1 (stereo not drawn) | – | inactive: -4.84%
COc1ccc(S(=O)(=O)N(C)Cc2nc(-c3cccc(C)c3)no2)cc1 | inconclusive: 25.1 µM [inhibitor, single point] | –
CC(C)Cc1cc(C(=O)Nc2cc(Br)ccc2O)no1 | inconclusive: 31.6 µM [inhibitor, single point] | –
CCCCC1(C)OC(=O)C(=Cc2ccc(N(CC)CC)cc2)C(=O)O1 (stereo not drawn) | – | inactive: -17.1%
CCN(CC)c1ccc(-n2nc3cc(C)c(NC(=O)c4ccccc4F)cc3n2)cc1 | inconclusive: 12.6 µM [inhibitor, partial curve] | –
O=C(c1ccccc1)c1nnc(-c2ccncc2)o1 | – | inactive: -14.7%
Cc1nn(-c2ccccc2)c(N2CCCC2)c1/C=N/NC(=S)Nc1ccccc1F | inconclusive: 1.58 µM [inhibitor, partial curve] | –
O=C(/C=C/c1ccc(N2CCOCC2)cc1)c1ccccc1 | inconclusive: 5.01 µM [inhibitor, partial curve] | –
C/C(CC(=O)Nc1ccc(Cl)c(C(F)(F)F)c1)=N\NC(=O)c1ccccc1O | inconclusive: 15.8 µM [inhibitor, partial curve] | –
O=C(CSc1nc(O)cc(=O)n1-c1ccccc1)Nc1ccc2c3c(cccc13)CC2 | inconclusive: 25.1 µM [inhibitor, single point] | –

SMILES | Potency | activity, negative = inhibition
O=C(Nc1cccs1)Nc1ccccc1Cl | inconclusive: 28.2 µM [inhibitor, partial curve] | –
c1ccc(OCc2nnc3sc(C4COc5ccccc5O4)nn23)cc1 (stereo not drawn) | inconclusive: 22.4 µM [inhibitor, partial curve] | –
N=c1c2c(-c3ccccc3)c(-c3ccccc3)n(Cc3ccco3)c2ncn1Cc1ccco1 | inconclusive: 17.8 µM [inhibitor, partial curve, poor fit] | –
C[N+](C)=C1SCC(C)(/C=N/O)S1 (stereo not drawn) | inconclusive: 14.1 µM [inhibitor, partial curve] | –
CCn1c(=O)c(-c2ccccc2)c(O)c2ccccc21 | – | inactive: 2.74%
COc1ccc(OCC(=O)NNC(=O)C(=O)Nc2ccc(C)cc2)cc1 | – | inactive: 4.65%
Fc1ccc([C@H]2CCNC[C@H]2COc2ccc3c(c2)OCO3)cc1 | – | inactive: -16.2%
O=c1c(O)c(-c2ccccc2)oc2cccc(O)c12 | inconclusive: 5.62 µM [inhibitor, full curve] | –
NC(=O)c1c(NC(=O)CSc2nnc(Cc3ccccc3)n2Cc2ccco2)sc2c1CCC2 | inconclusive: 39.8 µM [inhibitor, single point] | –
COc1ccc(-c2cc(C(F)(F)F)nc(SCC(=O)NCCc3ccc(OC)c(OC)c3)n2)cc1 | – | inactive: -2.99%
Cc1ccc(C)c(-c2nc3cc(N)ccc3o2)c1 | inconclusive: 12.6 µM [inhibitor, partial curve] | –
O=[N+]([O-])c1ccc(Cl)c(/C=N/N2CCN(c3ccccc3)CC2)c1 | inconclusive: 20 µM [inhibitor, partial curve] | –
CCC(C)(C(=O)NC1CCCCC1)N(CC1CCCO1)C(=O)c1ccccn1 (stereo not drawn) | inconclusive: 3.55 µM [inhibitor, single point] | –
O=c1c2ccccc2ncn1Cc1cccc2ccccc12 | – | inactive: -3.33%
Cc1ccc2nc(CSc3nnc(NC(=O)COc4ccccc4)s3)cc(=O)n2c1 | inconclusive: 7.08 µM [inhibitor, partial curve] | –
CCOC(=O)c1c(C)c(-c2ccccc2)n(CC(=O)NCCc2ccc(C)cc2)c1C | – | inactive: 0.272%
O=C(CCC(=O)Nc1ccc(F)cc1)N/N=C/c1ccc(O)cc1O | inconclusive: 8.91 µM [inhibitor, partial curve, poor fit] | –
O=C(O)c1ccccc1SCC(=O)N1c2ccccc2Sc2ccccc21 | – | inactive: 3.76%
CCCC[C@@H]1C[C@H]1C(NS(=O)(=O)c1cccc2cccnc12)c1ccc(-c2ccccc2)cc1 (stereo partly drawn) | inconclusive: 35.5 µM [inhibitor, single point] | –
CS(=O)(=O)c1sc2nc(-c3ccccc3)cc(-c3ccccc3)c2c1N | inconclusive: 22.4 µM [inhibitor, single point] | –
Cc1cc2ncn(/N=C/c3ccc([N+](=O)[O-])s3)c2cc1C | inconclusive: 3.98 µM [inhibitor, partial curve] | –
Cc1ccc2nc(SCc3cccc([N+](=O)[O-])c3)nc(C)c2c1 | inconclusive: 20 µM [inhibitor, partial curve] | –

From PubChem BioAssay AID1460 (National Center for Advancing Translational Sciences (NCATS), 2008)
